Measurements reported in PubChem BioAssay AID504333 (National Center for Advancing Translational Sciences (NCATS), 2011).
Values joined by “and” are separate entries in the source; they are usually repeats but may differ in a detail not shown here. Identical values can stand only once. About 16,000 (4.4%) of roughly 360,000 compounds were called active. The inconclusive results got no clear call from the source; some entries with a clear call stand among them for comparison. Calls come from the whole dose curve; as a rule, active = well fitted inhibition curve with a large enough effect; inconclusive = small, poorly fitted or top-dose-only effect; inactive = no such curve, though single readings can be large or run the other way. Potencies of inconclusive entries are doubtful fits and often do not repeat.

Biological target: Bromodomain adjacent to zinc finger domain protein 2B (Homo sapiens) (UniProt Q9UIF8)
Sequence of UniProt Q9UIF8 (Q9UIF8 whole entry, looked up, the tested form may be a part): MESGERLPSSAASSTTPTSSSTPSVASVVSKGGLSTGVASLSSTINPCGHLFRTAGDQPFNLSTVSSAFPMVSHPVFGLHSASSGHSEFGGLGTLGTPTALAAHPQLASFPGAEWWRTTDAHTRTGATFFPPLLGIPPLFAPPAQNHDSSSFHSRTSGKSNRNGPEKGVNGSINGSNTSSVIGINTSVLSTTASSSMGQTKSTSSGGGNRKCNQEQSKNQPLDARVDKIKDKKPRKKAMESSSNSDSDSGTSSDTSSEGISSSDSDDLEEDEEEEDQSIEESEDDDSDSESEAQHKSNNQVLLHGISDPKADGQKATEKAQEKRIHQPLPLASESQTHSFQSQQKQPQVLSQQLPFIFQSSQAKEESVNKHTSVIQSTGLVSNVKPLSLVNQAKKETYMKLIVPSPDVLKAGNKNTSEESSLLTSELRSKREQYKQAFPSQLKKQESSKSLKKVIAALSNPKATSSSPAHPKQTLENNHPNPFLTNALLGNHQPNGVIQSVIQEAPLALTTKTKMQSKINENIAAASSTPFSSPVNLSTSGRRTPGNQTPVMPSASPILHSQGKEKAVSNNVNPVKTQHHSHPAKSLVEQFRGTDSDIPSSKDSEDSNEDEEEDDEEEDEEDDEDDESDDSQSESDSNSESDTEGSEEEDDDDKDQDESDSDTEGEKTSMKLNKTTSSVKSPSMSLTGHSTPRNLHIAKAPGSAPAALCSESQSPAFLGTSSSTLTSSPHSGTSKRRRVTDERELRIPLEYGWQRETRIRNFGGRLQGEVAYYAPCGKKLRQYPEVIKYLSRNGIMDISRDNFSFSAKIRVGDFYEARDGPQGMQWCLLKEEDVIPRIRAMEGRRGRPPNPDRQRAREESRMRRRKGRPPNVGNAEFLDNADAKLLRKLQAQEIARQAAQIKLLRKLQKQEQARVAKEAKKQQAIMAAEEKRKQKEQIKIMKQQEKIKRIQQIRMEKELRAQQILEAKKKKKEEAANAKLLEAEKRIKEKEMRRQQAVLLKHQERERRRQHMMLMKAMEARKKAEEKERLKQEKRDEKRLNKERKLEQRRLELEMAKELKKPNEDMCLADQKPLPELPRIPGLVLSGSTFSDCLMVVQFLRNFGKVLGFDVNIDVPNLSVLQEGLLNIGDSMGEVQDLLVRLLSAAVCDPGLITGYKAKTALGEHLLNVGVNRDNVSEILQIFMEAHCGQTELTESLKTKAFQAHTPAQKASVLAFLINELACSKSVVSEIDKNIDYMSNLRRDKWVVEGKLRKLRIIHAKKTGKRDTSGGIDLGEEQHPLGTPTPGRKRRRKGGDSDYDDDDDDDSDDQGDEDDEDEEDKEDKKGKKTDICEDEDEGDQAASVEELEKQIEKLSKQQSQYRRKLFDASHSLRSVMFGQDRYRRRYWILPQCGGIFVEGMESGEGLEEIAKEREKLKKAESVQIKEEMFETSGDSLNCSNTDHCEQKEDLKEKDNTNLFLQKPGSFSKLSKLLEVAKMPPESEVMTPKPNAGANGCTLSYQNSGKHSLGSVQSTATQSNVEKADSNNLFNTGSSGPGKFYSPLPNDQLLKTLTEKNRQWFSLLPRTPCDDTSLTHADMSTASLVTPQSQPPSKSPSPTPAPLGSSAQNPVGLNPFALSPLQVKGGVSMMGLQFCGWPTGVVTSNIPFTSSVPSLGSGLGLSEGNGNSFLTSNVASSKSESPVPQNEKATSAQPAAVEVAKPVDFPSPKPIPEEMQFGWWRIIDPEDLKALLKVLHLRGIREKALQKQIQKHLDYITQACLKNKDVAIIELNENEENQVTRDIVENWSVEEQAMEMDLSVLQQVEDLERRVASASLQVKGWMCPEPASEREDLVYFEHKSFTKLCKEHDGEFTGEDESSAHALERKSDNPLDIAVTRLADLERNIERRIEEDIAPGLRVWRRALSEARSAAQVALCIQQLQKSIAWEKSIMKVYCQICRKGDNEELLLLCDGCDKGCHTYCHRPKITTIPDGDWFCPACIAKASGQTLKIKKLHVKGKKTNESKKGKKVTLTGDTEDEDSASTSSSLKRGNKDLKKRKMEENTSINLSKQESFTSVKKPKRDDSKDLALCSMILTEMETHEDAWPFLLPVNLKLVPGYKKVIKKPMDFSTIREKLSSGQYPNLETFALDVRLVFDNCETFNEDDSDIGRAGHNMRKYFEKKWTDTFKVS
Test: qHTS Assay for Inhibitors of BAZ2B; note: nearly all actives have a fitted effect of over 60% in size
Details: AlphaScreen BAZ2B-H3K14Ac peptide displacement; activity change, negative = inhibition: at 114 µM (top of the series)
In short: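 Complex of BAZ2B and biotin-H3K14Ac (50 nM apiece) forms over 30 min at RT, then faces library compounds up to 110 uM for another 30 min; AlphaScreen beads added, 20 min dark incubation, luminescence read.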
% is set by controls: 0 for no effect and ±100 for the full control effect; potency is the fitted concentration of half-maximal effect; tags give direction and shape of the fitted curve.

| Structure (SMILES) | Potency | activity change, negative = inhibition |
| --- | --- | --- |
| Cc1ccccc1-c1nc(C#N)c(N2CCC(C)CC2)o1 | inconclusive: 12.6 µM [inhibitor, full curve] |  |
| COc1ccc(CNC(=O)CN(C(=O)c2snc(C(N)=O)c2N)c2ccccc2F)cc1 |  | inactive: 3.15% |
| COc1ccc2oc(C(=O)N3CCN(C/C=C/c4ccccc4)CC3)c(C)c2c1 | inconclusive: 70.8 µM [inhibitor, partial curve] |  |
| COc1ccc(CCNCCN2CCOCC2)cc1 | active: 25.1 µM |  |
| Cc1ccc(C(=O)N/C(=C\c2ccco2)C(=O)NCCCn2ccnc2)cc1 | active: 7.94 µM |  |
| CCn1nnc(NC(=O)CSc2ccc(Cl)cc2)n1 |  | inconclusive: -58.4% [inhibitor] |
| Cc1ccc(-c2c[nH]c(=S)n2-c2ccccc2)cc1 | inconclusive: 10 µM [inhibitor, full curve] |  |
| Cc1cc(C)c2c(N)c(C(=O)NNC(=O)c3ccccc3)sc2n1 |  | inactive: -25.5% |
| Cc1cc(N2CCCCC2)nc2ccc(NC(=O)c3ccc(Br)o3)cc12 | inconclusive: 44.7 µM [inhibitor, partial curve] |  |
| CCOc1cccc(-c2cc(C(=O)N/N=C/c3ccc(OC)c(CN4CCOCC4)c3)c3ccccc3n2)c1 | inconclusive: 44.7 µM [inhibitor, partial curve] |  |
| O=C(CSc1ccsc1[N+](=O)[O-])Nc1cccc(F)c1 | active: 35.5 µM |  |
| COc1ccc(C(=O)NCCn2cc(SCC(=O)Nc3cccc(C)c3)c3ccccc32)cc1 | active: 50.1 µM |  |
| O=C(NCCNc1ccc(Cl)cc1[N+](=O)[O-])c1cccnc1 |  | inactive: -30.2% |
| O=C(c1ccc(C(=O)N2CCOCC2)nc1)N1CCOCC1 |  | inactive: 2.19% |
| CCOC(=O)c1c(N)n(-c2cccc(OC)c2)c2nc3ccccc3nc12 |  | inactive: -2.7% |
| CCOCCCNc1nc(C)nc2c1nnn2Cc1c(F)cccc1Cl |  | inactive: -23.2% |
| CCn1c(=O)n(CC)c2cc(N3CCCCC3)c(NC(=O)Nc3cc(C)cc(C)c3)cc21 | inconclusive: 8.91 µM [inhibitor, full curve] |  |
| CCC(CC)C(=O)NCCc1ccc(F)cc1 | inconclusive: 89.1 µM [inhibitor, single point] |  |
| Cc1ccn2c(CNCCn3cccn3)c(C(=O)N3CCCCCC3)nc2c1 | inconclusive: 89.1 µM [inhibitor, single point] |  |
| COc1ccccc1/C=C1\SC(=S)N(CCC(=O)N2CCCCC2CCO)C1=O (centres undefined) |  | inactive: -33.2% [at 57.1 µM] |
| O=C(O)CC(NNC(=O)c1ccccc1)C(=O)Nc1cccc([N+](=O)[O-])c1 (centres undefined) | inconclusive: 79.4 µM [inhibitor, single point] |  |
| COc1ccc(N(CC(=O)N/N=C/c2cc(Br)c(C)o2)S(=O)(=O)c2ccc(NC(C)=O)cc2)cc1 | inconclusive: 50.1 µM [inhibitor, partial curve] |  |
| C=CCn1c(C)c(/C=C/c2cc[n+](C)cc2)c2ccccc21 |  | inactive: 3.37% |
| CC(C)NCCCCOc1cccc(Br)c1 | active: 50.1 µM |  |
| O=S(=O)(c1ccc(OC(F)(F)F)cc1)N1CCCC(N2CCOCC2)C1 (centres undefined) |  | inactive: 10.1% |

| Structure (SMILES) | Potency | activity change, negative = inhibition |
| --- | --- | --- |
| C/C(=N\Nc1ccccc1Cl)c1ccc(-n2ccnc2)cc1 | active: 50.1 µM |  |
| COc1ccc(NC(=S)NN(C)C(=S)Nc2ccc(OC)cc2)cc1 | inconclusive: 56.2 µM [inhibitor, single point] |  |
| COc1ccc(-n2c(C)cc(C(=O)CCl)c2C)cc1 | active: 44.7 µM |  |
| CCCCOC(=O)Nc1ccc(N(C)C)cc1 | active: 39.8 µM |  |
| O=C(CN(C(=O)CCC(=O)Nc1ccccn1)c1cccc(F)c1)NCc1ccco1 | inconclusive: 56.2 µM [inhibitor, partial curve] |  |
| Cc1[nH]c(C(=O)N/N=C/c2ccc(C(=O)O)cc2)c(C)c1C(=O)N/N=C/c1ccc(C(=O)O)cc1 | inconclusive: 79.4 µM [inhibitor, single point] |  |
| COc1cc(-c2noc(C)c2C(=O)NCCc2c[nH]c3ccccc23)cc(OC)c1OC | active: 50.1 µM |  |
| CN1N=C(C(F)(F)F)CC1=O | inconclusive: 70.8 µM [inhibitor, partial curve, poor fit] |  |
| COc1ccc(-n2c(Cc3cccn3C)nnc2SCC(=O)Nc2ccc(C)cc2C)cc1 | inconclusive: 50.1 µM [inhibitor, partial curve] |  |
| O=C(NC(=S)Nc1cc(-c2nc3ccccc3[nH]2)ccc1Cl)c1ccc2c(c1)OCO2 |  | inactive: 1.01% |
| Cc1cc(C)c(CSc2nnc(C)n3c2cc2occc23)c(C)c1 | active: 39.8 µM |  |
| Cc1ccc(N(Cc2cc3ccc(C)cc3[nH]c2=O)C(=O)c2ccco2)cc1 |  | inactive: -21.6% |
| COc1ccccc1CN=Cc1[nH]c2ccc(Br)c(Cl)c2c1O |  | inactive: -27.8% |
| Cc1ccn2c(Nc3ccccc3C)c(-c3ccccn3)nc2c1 | active: 14.1 µM and active: 22.4 µM |  |
| Cc1ccccc1NC(=S)/C(=C(\[O-])c1ccc(C)c([N+](=O)[O-])c1)[n+]1ccccc1 | inconclusive: 44.7 µM [inhibitor, partial curve] |  |
| O=C(O)c1ccc(C2CCCCC2)cn1 | active: 3.98 µM |  |
| CCOC(=O)C1CCCN(C(=O)c2cc3ncc(Br)cn3n2)C1 (centres undefined) | inconclusive: 89.1 µM [inhibitor, single point] |  |
| O=C(COC(=O)c1ccc2c(c1)C(=O)N(c1cccc3ncccc13)C2=O)c1ccc(Cl)cc1 | inconclusive: 89.1 µM [inhibitor, single point] |  |
| CC(=O)N1N=C(c2ccc(C)cc2)CC1c1ccco1 (centres undefined) |  | inactive: -39% |
| O=C(c1ccc(C(F)(F)F)cc1)N1CCC(=O)N(C(COCc2ccccc2)Cc2ccccc2)CC1 (centres undefined) |  | inactive: -38.5% |
| COc1ccc2c(/C=N/Nc3ccc(C(=O)O)cc3)c[nH]c2c1 | inconclusive: 50.1 µM [inhibitor, partial curve] |  |
| O=C1c2[nH]nc(-c3ccccc3O)c2C(c2ccc(Cl)cc2)N1Cc1ccco1 (centres undefined) | inconclusive: 56.2 µM [inhibitor, partial curve] |  |
| O=C(C1CCCO1)N1CCC(c2nc3ccccc3[nH]2)CC1 (centres undefined) | inconclusive: 89.1 µM [inhibitor, single point] |  |
| CCOC(=O)c1[nH]c2ccc(F)cc2c1NC(=O)CN1CCN(C/C=C/c2ccccc2)CC1 | inconclusive: 39.8 µM [inhibitor, full curve] |  |
